From article PMC4336329 (PLoS ONE, 2015)
Among all 310,000 compounds or so, about 2,200 (0.71%) showed an effect of 50% or more. The effect is printed as a negative number. The list shows a part of the results.

target: human ether-à-go-go-related gene (hERG) potassium channel (human, UniProt Q12809); assay: primary screen, population patch clamp on CHO cells stably expressing hERG
Sequence (Q12809 whole entry, looked up): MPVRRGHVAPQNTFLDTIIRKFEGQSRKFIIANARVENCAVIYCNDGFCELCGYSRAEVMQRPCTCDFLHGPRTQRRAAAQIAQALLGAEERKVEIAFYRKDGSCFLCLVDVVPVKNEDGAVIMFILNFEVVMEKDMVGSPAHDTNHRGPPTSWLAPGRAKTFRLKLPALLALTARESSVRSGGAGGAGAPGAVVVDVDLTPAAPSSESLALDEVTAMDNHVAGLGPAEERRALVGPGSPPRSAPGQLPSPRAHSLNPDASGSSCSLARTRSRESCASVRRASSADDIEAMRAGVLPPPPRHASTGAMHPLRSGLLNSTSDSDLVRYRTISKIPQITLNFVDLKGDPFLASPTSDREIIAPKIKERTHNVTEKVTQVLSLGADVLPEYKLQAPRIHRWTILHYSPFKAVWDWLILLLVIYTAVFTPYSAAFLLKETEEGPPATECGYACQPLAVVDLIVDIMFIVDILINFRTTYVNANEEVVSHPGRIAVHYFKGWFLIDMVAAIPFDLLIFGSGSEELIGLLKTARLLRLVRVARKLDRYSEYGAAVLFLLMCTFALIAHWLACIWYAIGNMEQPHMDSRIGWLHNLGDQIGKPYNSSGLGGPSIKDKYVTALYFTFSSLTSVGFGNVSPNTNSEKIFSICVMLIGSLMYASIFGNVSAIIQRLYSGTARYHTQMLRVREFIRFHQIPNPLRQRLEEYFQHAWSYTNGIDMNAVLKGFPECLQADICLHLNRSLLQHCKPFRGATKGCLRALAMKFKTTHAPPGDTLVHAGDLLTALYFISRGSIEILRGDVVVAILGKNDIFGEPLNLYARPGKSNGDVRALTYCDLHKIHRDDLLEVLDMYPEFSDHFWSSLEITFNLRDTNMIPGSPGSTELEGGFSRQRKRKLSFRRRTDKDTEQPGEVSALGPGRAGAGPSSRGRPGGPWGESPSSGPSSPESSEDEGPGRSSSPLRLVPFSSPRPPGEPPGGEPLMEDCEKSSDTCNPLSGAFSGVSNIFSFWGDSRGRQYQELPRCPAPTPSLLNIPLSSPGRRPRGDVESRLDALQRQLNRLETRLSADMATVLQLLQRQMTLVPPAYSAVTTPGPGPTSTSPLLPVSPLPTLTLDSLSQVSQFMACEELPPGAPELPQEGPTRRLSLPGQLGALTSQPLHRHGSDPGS

SMILES | hERG current change (%, negative = inhibition) at 1uM [%]
CCN(CC)c1ccc(C(=O)c2ccccc2C(=O)O)c(O)c1 | 11.7
CN(C)C(CNC(=O)C1CCCN(C(=O)c2ccc(Cl)cc2)C1)c1ccco1 (stereo not drawn) | 10.9
Cn1c(=O)c2ncn(CC(=O)Nc3cc(C(F)(F)F)ccc3N3CCOCC3)c2n(C)c1=O | -21.9
O=C(Nc1ccc(Oc2cccnc2)cc1)C1CCN(Cc2ccc(F)cc2)CC1 | -6.12
Cn1c(=O)c2c(nc(N3CCOCC3)n2CC(=O)C23CC4CC(CC(C4)C2)C3)n(C)c1=O | -12.3
COCc1ccc(CN2CCc3c([nH]c4ccccc34)C2CC(C)C)o1 (stereo not drawn) | 4.93
O=C(O)c1cc(-c2ccc(O)cc2)nc2ccccc12 | 19.1
O=C(c1cccs1)N1CCN(c2ccccc2)CC1 | 5.61
COc1cc(C(=O)OCc2nc3ccsc3c(=O)[nH]2)c([N+](=O)[O-])cc1OC | 2.78
Cc1ccccc1Nc1nn2c(=O)c3ccccc3nc2s1 | 12
CC(=O)Nc1ccc(N=Nc2ccc(O)cc2)cc1 | 14.2
CC(=O)c1ccc(NC(=O)C2C3C=CC(O3)C2C(=O)O)cc1 (stereo not drawn) | 8.15
O=c1cc(CO)occ1OCc1c(F)cccc1Cl | 6.14
COc1cc(NC(=O)c2cc(Br)cc(C)c2OC)ccc1NC(=O)C(C)C | 10.6
CCCC(C)C(=O)Nc1ccc(S(N)(=O)=O)cc1 (stereo not drawn) | 13
COc1ccccc1-c1nn(-c2ccccc2)cc1C(=O)NC1CC1 | 8.95
CCCCN1CCCCC1C(=O)Nc1c(C)cc(C)cc1C.Cl (stereo not drawn) | -10.5
O=C(CN1CCc2ccccc21)NC(=O)NCc1ccco1 | 1.15
Cc1ccc(C(=O)Nc2ccccc2Cl)cc1 | 15.1

SMILES | hERG current change (%, negative = inhibition) at 1uM [%]
Cc1cccc(NC(=S)N2CC3CC(C2)c2cccc(=O)n2C3)c1C (stereo not drawn) | 24.7
Cc1ccc2nc3c(nc2c1C)C(O)=C3O | 10.5
COc1ccc(CC(=O)N2C[C@H]3C[C@@H](C2)c2cccc(=O)n2C3)cc1 | 4.14
COc1ccc(NC(=O)Cn2nnc(C(=O)NCCc3ccccc3)c2N)cc1 | 12.4
CCCCN(C(=O)c1cccc(S(=O)(=O)N2CCN(C)CC2)c1)c1c(N)n(CCCC)c(=O)[nH]c1=O | 12.4
COc1cc(NCc2ccccc2)c2ncn(C(C)C)c2c1 | 2.13
Cc1ccc(-c2cc(C(=O)NCCCN3CCOCC3)c3ccccc3n2)cc1C | 6.36
Cc1ccc(CSc2ccc(S(=O)(=O)N3CCCC3)cn2)cc1 | 3.47
Br.CC(C)(C)c1ccc(-c2csc(NNC3=NCCCCC3)n2)cc1 | 6.27
CCOC(=O)c1nn(-c2cc(C(=O)OC)cc(C(=O)OC)c2)cc1O | 4.07
CCC(C)N=CC1=C(O)CC(c2ccccc2)CC1=O (stereo not drawn) | 1.68
CCCCOC(=O)C1=C(C)NC(=O)NC1c1ccc(N(C)C)cc1 (stereo not drawn) | 14.9
Cc1cc(C)cc(N/C(N)=N/c2nc(C)cc(C)n2)c1 | -11
CC(Oc1ccc(-c2ccccc2)c(F)c1)c1ccn(S(=O)(=O)c2ccc(Br)cc2)n1 (stereo not drawn) | 7.72
COC(CNC(=O)c1ccc2c3c(onc13)-c1ccccc1C2=O)OC | 10.5
Cc1nn(C(=O)Cn2ccc([N+](=O)[O-])n2)c(C)c1Br | -0.108
O=C(CSc1nc2ccccc2c(=O)n1CCCN1CCOCC1)NC12CC3CC(CC(C3)C1)C2 | 1.06
Cc1ccc(-n2c(-c3ccncc3)n[nH]c2=S)c(C)c1 | 4.47
O=S(=O)(/N=C(/Nc1ccccn1)c1ccc(Cl)cc1)c1ccc(Cl)cc1 | 4.53

SMILES | hERG current change (%, negative = inhibition) at 1uM [%]
Cc1nc2scc(C)n2c(=O)c1S(=O)(=O)Nc1ccc(N2CCN(C(=O)C(C)C)CC2)cc1 | 15
CC(C)c1ccc(OCc2ccc(C(=O)N3CCN(c4ccccn4)CC3)cc2)cc1 | -7.79
O=C(CN1CCN(c2ccccc2O)CC1)Nc1ccc2c(c1)CCC2 | -1.55
COc1cccc(/C(=N/O)C2CC2c2ccc(Cl)cc2)c1 (stereo not drawn) | 15.7
COc1ccc(N(CC(=O)Nc2ccc(C)cc2C)S(=O)(=O)c2c(C)n[nH]c2C)cc1 | 13
O=C(CCNc1ccccc1)c1cccc([N+](=O)[O-])c1 | -10.9
COc1ccc(-c2c(-c3ccsc3)oc(=O)c3cc(OC)c(OC)cc23)cc1 | 10.3
N/C(=N\NC(=O)c1cccc(F)c1)c1cc2ccccc2oc1=O | 10.5
Cc1oc(-c2cccc(Cl)c2)[n+]([O-])c1C.Cl | 10.3
Cc1ccsc1CN(C)C(=O)CCc1nnc(COc2ccccc2)o1 | -0.259
O=S(=O)(c1cccc2ccccc12)n1nnc2ccccc21 | 12.8
Cc1cccc(-c2n[nH]c(=S)n2-c2ccccc2)c1[N+](=O)[O-] | 11.4
CC(C)O/C(=N\S(=O)(=O)c1ccc(Cl)cc1)c1ccccc1 | -4.57
N#Cc1ccc(OC(=O)c2cnccn2)cc1 | 10.6
O=C(Nc1cc(F)ccc1F)N1CCN(c2ccnc3cc(Cl)ccc23)CC1 | -19.9
Cc1ccc(NCc2nnc(SCC(=O)NCc3ccco3)n2CC2CCCO2)cc1Cl (stereo not drawn) | -5.15
c1ccc(CN(Cc2ccccc2)c2ncnc3c2nnn3Cc2ccccc2)cc1 | 13
COc1cccc(CN=C2Nc3ccccc3CS2)c1 | 15.4
O=C(NCCc1ccc(Cl)cc1)C1CCC(=O)N1Cc1ccccc1Cl (stereo not drawn) | -0.692
